To fix the notation:
B1: AB200-R1a-Fab_Vk24 (antibody)
heavy: QVQLVQSGAEVKKPGSSVKVSCKASGGTFSNYWMHWVRQAPGQGLEWMGATYRGHSDTYYNQKFKGRVTITADKSTSTAYMELSSLRSEDTAVYYCARGAIYHGYDVLDNWGQGTLVTVSSASTKGPSVFPLAPSSKSTSGGTAALGCLVKDYFPEPVTVSWNSGALTSGVHTFPAVLQSSGLYSLSSVVTVPSSSLGTQTYICNVNHKPSNTKVDKKVEPKSC
light: DIQMTQSPSSLSASVGDRVTITCSASNSISNYLNWYQQKPGKAPKLLIYYASNLHSGVPSRFSGSGSGTDFTLTISSLQPEDFATYYCQQYRKLPWTFGQGTKLEIKRTVAAPSVFIFPPSDEQLKSGTASVVCLLNNFYPREAKVQWKVDNALQSGNSQESVTEQDSKDSTYSLSSTLTLSKADYEKHKVYACEVTHQGLSSPVTKSFNRGEC
B2: AB200-R1a-Fab_Vk19 (antibody)
heavy: B1 heavy
light: B1 light with S28D, L33I, A51T, Y91F
B3: AB200-R1a-Fab_Vk18 (antibody)
heavy: B1 heavy
light: B1 light with S24T, N27Q, S28D, A51T, N53D, S56I
B4: AB200-R1a-Fab_Vk26 (antibody)
heavy: B1 heavy
light: B1 light with N27Q, S28D, A51S, N53S, S56I
B5: AB200-R1a-Fab_Vk22 (antibody)
heavy: B1 heavy
light: B1 light with S24R, N27Q, S28D, A51T, K93S, L94I
B6: AB200-R1a-Fab_Vk25 (antibody)
heavy: B1 heavy
light: B1 light with N27Q, S28D, Y50A, L94I
B7: AB200-R1a-Fab_Vk20 (antibody)
heavy: B1 heavy
light: B1 light with N27Q, S28D, Y32F, A51T, N53D, R92Y
B8: AB200-R1a-Fab_Vk21 (antibody)
heavy: B1 heavy
light: B1 light with N27Q, S28D, A51T, Q89H, R92K, L94T
B9: AB200-R1a-Fab_Vk23 (antibody)
heavy: B1 heavy
light: B1 light with N27Q, S28D, A51T, L54I, R92K, L94M
B10: AB200-R1a-Fab_Vk27 (antibody)
heavy: B1 heavy
light: B1 light with N27Q, S28D, S30T, Y50F, A51T, R92Y
B11: AB216: humanized anti-BCMA antibody, heavy chain SEQ ID NO: 100, light chain SEQ ID NO: 101 (antibody)
heavy: QVQLVQSGAEVKKPGSSVKVSCKASGGTFSNYWIHWVRQAPGQGLEWMGATYRIQSDTYYNQKYKSRVTITADKSTSTAYMELSSLRSEDTAVYYCARGAVYHGYDVIDNWGQGTLVTVSS[omitted - human IgG1 constant region]
light: B1 light with S24R, N27Q, N31S, L33I, Y50A, A51T, H55Q, S56I, K93R, T97S
B12: AB213: humanized anti-BCMA antibody, heavy chain SEQ ID NO: 94, light chain SEQ ID NO: 95 (antibody)
heavy: B11 heavy with S30T, A50G, I54S, Q55H, D57T, Y64F
light: B1 light with S24R, N27Q, N31S, Y50A, A51T, H55Q, S56I, Y91F, K93R

Numbering of substitutions follows the chain as printed.

Here are results for twelve molecules from patent publication US12043670B2, “Anti-BCMA antibody-drug conjugates and methods of use” (Eisai R&D Management Co., Ltd., priority 2020, dated 2024).

The nature of one data set: ThermoFluor thermostability (Tm). Type of data set: physicochemical. The note with it: Light chain screening Round 1; Fab, paired with heavy chain AB200_D99H. (In general: DSF heats the sample and reads unfolding from a dye or from intrinsic fluorescence.)
For B1, the Tm is 81.41 °C.
With B2, the Tm amounted to 83.86 °C.
On to B3, for which the Tm was 81.44 °C.
B4: the Tm came to 82.42 °C.
The same measure, in the same setting: the figure for B5 is 84.15 °C.
On the same count and under the same terms, the figure for B6 is 85.93 °C; for B7 it is 82.03 °C; for B8 it is 80.80 °C.
For the molecule B9, the Tm was determined as 83.32 °C.
In the case of B10, the Tm worked out at 82.86 °C.

The same data set, now with this note: thermostability of selected clones.
On to B11, for which the Tm stood at 78.4 °C.
The same measure, in the same setting: to B12 belongs 85.9 °C.
